Measurements taken from US20240076343A1.

Legend:
[1] = molecular target: high-affinity hIL-2 receptor (IL-2Rαβγ) on NK-92 cells (human) (UniProt P01589); assay: cell-based or functional assay
[2] = molecular target: intermediate affinity hIL-2 receptor complex (IL-2Rβγ) on TF1+IL-2Rβ cells (human) (UniProt P14784); assay: cell-based or functional assay
Chain of UniProt P14784 (P14784 27-551, chain 1 of 2): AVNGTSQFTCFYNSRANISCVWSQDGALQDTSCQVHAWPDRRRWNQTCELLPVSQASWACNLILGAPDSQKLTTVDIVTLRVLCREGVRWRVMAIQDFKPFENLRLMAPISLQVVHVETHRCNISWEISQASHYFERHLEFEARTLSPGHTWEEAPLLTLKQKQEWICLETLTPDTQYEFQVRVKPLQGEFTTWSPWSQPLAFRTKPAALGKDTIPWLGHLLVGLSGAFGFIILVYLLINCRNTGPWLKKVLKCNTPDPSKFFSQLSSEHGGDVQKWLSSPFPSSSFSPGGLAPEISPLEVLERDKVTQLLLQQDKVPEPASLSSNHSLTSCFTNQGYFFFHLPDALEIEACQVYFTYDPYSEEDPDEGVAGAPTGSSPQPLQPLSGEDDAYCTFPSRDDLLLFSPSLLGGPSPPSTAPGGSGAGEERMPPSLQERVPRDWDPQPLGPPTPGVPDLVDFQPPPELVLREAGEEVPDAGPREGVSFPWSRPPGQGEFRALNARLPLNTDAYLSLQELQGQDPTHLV
Chain of UniProt P14784 (chain, as listed by the source, chain 2 of 2): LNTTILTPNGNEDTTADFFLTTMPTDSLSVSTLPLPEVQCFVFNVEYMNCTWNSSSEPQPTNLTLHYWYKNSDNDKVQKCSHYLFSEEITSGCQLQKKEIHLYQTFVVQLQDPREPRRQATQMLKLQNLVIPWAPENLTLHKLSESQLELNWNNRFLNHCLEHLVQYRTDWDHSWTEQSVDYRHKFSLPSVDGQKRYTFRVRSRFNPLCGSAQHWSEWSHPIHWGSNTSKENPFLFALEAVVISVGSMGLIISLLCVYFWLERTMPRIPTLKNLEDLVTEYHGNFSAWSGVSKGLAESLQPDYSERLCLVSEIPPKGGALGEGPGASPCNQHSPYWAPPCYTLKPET

Chain of UniProt P01589 (P01589 22-272, chain 1 of 3): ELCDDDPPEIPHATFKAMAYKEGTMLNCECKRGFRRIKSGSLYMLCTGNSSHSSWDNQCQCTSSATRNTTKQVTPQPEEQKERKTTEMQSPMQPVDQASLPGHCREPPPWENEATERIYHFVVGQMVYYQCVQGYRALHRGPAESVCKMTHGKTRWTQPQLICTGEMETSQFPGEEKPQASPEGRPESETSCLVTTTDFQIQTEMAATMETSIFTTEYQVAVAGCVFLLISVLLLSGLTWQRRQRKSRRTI
Chain of UniProt P01589 (chain, as listed by the source, chain 2 of 3): as the sequence (P14784 27-551, chain 1 of 2) above
Chain of UniProt P01589 (chain, as listed by the source, chain 3 of 3): as the sequence (chain, as listed by the source, chain 2 of 2) above

Row | Fold change from hIL-2 (NK-92) [1] | Fold change from hIL-2 (TF1 + IL-2Rβ) [2] | Binder
1 | 11 fold | 2 fold | 1H3-hIgG1-L6-hIL-2 (F42A/Y45R/D20A) (protein) heavy: EVQLVESGGGLVQPGRSLKLSCAVSGFTFSDYAMAWVRQAPKKGLEWVATISYDGSRTYYRDSVKGRFTISRDNAKITLYLQMDSLRSEDTATYYCARHGSGYFDYWGQGVMVTVSS[not shown - human IgG1 constant region]SGGGGSAPTSSSTKKTQLQLEHLLLALQMILNGINNYKNPKLTRMLTAKFRMPKKATELKHLQCLEEELKPLEEVLNLAQSKNFHLRPRDLISNINVIVLELKGSETTFMCEYADETATIVEFLNRWITFCQSIISTLT light: DTVLTQSPALAVSPGERVTISCRASESVRTGVHWYQQKPGQQPKLLIYGASNLESGVPARFSGSGSGTDFTLTIDPVEADDTATYFCQQSWNDPFTFGSGTKLEIKRTVAAPSVFIFPPSDEQLKSGTASVVCLLNNFYPREAKVQWKVDNALQSGNSQESVTEQDSKDSTYSLSSTLTLSKADYEKHKVYACEVTHQGLSSPVTKSFNRGEC
2 | 5 fold | 7 fold | 1H3-hIgG1-L6-hIL-2 (D20A/E95A/K43A) (protein) heavy: EVQLVESGGGLVQPGRSLKLSCAVSGFTFSDYAMAWVRQAPKKGLEWVATISYDGSRTYYRDSVKGRFTISRDNAKITLYLQMDSLRSEDTATYYCARHGSGYFDYWGQGVMVTVSS[not shown - human IgG1 constant region]SGGGGSAPTSSSTKKTQLQLEHLLLALQMILNGINNYKNPKLTRMLTFAFYMPKKATELKHLQCLEEELKPLEEVLNLAQSKNFHLRPRDLISNINVIVLALKGSETTFMCEYADETATIVEFLNRWITFCQSIISTLT light: DTVLTQSPALAVSPGERVTISCRASESVRTGVHWYQQKPGQQPKLLIYGASNLESGVPARFSGSGSGTDFTLTIDPVEADDTATYFCQQSWNDPFTFGSGTKLEIKRTVAAPSVFIFPPSDEQLKSGTASVVCLLNNFYPREAKVQWKVDNALQSGNSQESVTEQDSKDSTYSLSSTLTLSKADYEKHKVYACEVTHQGLSSPVTKSFNRGEC
3 | 13 fold | 1 fold | 1H3-hIgG1-L6-hIL-2 (R38E/I129A) (protein) heavy: EVQLVESGGGLVQPGRSLKLSCAVSGFTFSDYAMAWVRQAPKKGLEWVATISYDGSRTYYRDSVKGRFTISRDNAKITLYLQMDSLRSEDTATYYCARHGSGYFDYWGQGVMVTVSS[not shown - about 450 residues with a human IgG1 Fc and changes] light: DTVLTQSPALAVSPGERVTISCRASESVRTGVHWYQQKPGQQPKLLIYGASNLESGVPARFSGSGSGTDFTLTIDPVEADDTATYFCQQSWNDPFTFGSGTKLEIKRTVAAPSVFIFPPSDEQLKSGTASVVCLLNNFYPREAKVQWKVDNALQSGNSQESVTEQDSKDSTYSLSSTLTLSKADYEKHKVYACEVTHQGLSSPVTKSFNRGEC
4 | 1 fold | 5 fold | 1H3-hIgG1-L6-hIL-2 (D20A/E95A/L72Y) (protein) heavy: EVQLVESGGGLVQPGRSLKLSCAVSGFTFSDYAMAWVRQAPKKGLEWVATISYDGSRTYYRDSVKGRFTISRDNAKITLYLQMDSLRSEDTATYYCARHGSGYFDYWGQGVMVTVSS[not shown - human IgG1 constant region]SGGGGSAPTSSSTKKTQLQLEHLLLALQMILNGINNYKNPKLTRMLTFKFYMPKKATELKHLQCLEEELKPLEEVLNYAQSKNFHLRPRDLISNINVIVLALKGSETTFMCEYADETATIVEFLNRWITFCQSIISTLT light: DTVLTQSPALAVSPGERVTISCRASESVRTGVHWYQQKPGQQPKLLIYGASNLESGVPARFSGSGSGTDFTLTIDPVEADDTATYFCQQSWNDPFTFGSGTKLEIKRTVAAPSVFIFPPSDEQLKSGTASVVCLLNNFYPREAKVQWKVDNALQSGNSQESVTEQDSKDSTYSLSSTLTLSKADYEKHKVYACEVTHQGLSSPVTKSFNRGEC
5 | 2 fold | 6 fold | 1H3-hIgG1-L6-hIL-2 (D20A/E95A/L72F) (protein) heavy: EVQLVESGGGLVQPGRSLKLSCAVSGFTFSDYAMAWVRQAPKKGLEWVATISYDGSRTYYRDSVKGRFTISRDNAKITLYLQMDSLRSEDTATYYCARHGSGYFDYWGQGVMVTVSS[not shown - human IgG1 constant region]SGGGGSAPTSSSTKKTQLQLEHLLLALQMILNGINNYKNPKLTRMLTFKFYMPKKATELKHLQCLEEELKPLEEVLNFAQSKNFHLRPRDLISNINVIVLALKGSETTFMCEYADETATIVEFLNRWITFCQSIISTLT light: DTVLTQSPALAVSPGERVTISCRASESVRTGVHWYQQKPGQQPKLLIYGASNLESGVPARFSGSGSGTDFTLTIDPVEADDTATYFCQQSWNDPFTFGSGTKLEIKRTVAAPSVFIFPPSDEQLKSGTASVVCLLNNFYPREAKVQWKVDNALQSGNSQESVTEQDSKDSTYSLSSTLTLSKADYEKHKVYACEVTHQGLSSPVTKSFNRGEC
6 | 12 fold | 0 fold | 1H3-hIgG1-L6-hIL-2 (R38E/T123A) (protein) heavy: EVQLVESGGGLVQPGRSLKLSCAVSGFTFSDYAMAWVRQAPKKGLEWVATISYDGSRTYYRDSVKGRFTISRDNAKITLYLQMDSLRSEDTATYYCARHGSGYFDYWGQGVMVTVSS[not shown - about 450 residues with a human IgG1 Fc and changes] light: DTVLTQSPALAVSPGERVTISCRASESVRTGVHWYQQKPGQQPKLLIYGASNLESGVPARFSGSGSGTDFTLTIDPVEADDTATYFCQQSWNDPFTFGSGTKLEIKRTVAAPSVFIFPPSDEQLKSGTASVVCLLNNFYPREAKVQWKVDNALQSGNSQESVTEQDSKDSTYSLSSTLTLSKADYEKHKVYACEVTHQGLSSPVTKSFNRGEC
7 | 2 fold | 6 fold | 1H3-hIgG1-L6-hIL-2 (D20A/E95A/L72A) (protein) heavy: EVQLVESGGGLVQPGRSLKLSCAVSGFTFSDYAMAWVRQAPKKGLEWVATISYDGSRTYYRDSVKGRFTISRDNAKITLYLQMDSLRSEDTATYYCARHGSGYFDYWGQGVMVTVSS[not shown - human IgG1 constant region]SGGGGSAPTSSSTKKTQLQLEHLLLALQMILNGINNYKNPKLTRMLTFKFYMPKKATELKHLQCLEEELKPLEEVLNAAQSKNFHLRPRDLISNINVIVLALKGSETTFMCEYADETATIVEFLNRWITFCQSIISTLT light: DTVLTQSPALAVSPGERVTISCRASESVRTGVHWYQQKPGQQPKLLIYGASNLESGVPARFSGSGSGTDFTLTIDPVEADDTATYFCQQSWNDPFTFGSGTKLEIKRTVAAPSVFIFPPSDEQLKSGTASVVCLLNNFYPREAKVQWKVDNALQSGNSQESVTEQDSKDSTYSLSSTLTLSKADYEKHKVYACEVTHQGLSSPVTKSFNRGEC
8 | 5 fold | 6 fold | 1H3-hIgG1-L6-hIL-2 (D20A/E95A/K43Q) (protein) heavy: EVQLVESGGGLVQPGRSLKLSCAVSGFTFSDYAMAWVRQAPKKGLEWVATISYDGSRTYYRDSVKGRFTISRDNAKITLYLQMDSLRSEDTATYYCARHGSGYFDYWGQGVMVTVSS[not shown - human IgG1 constant region]SGGGGSAPTSSSTKKTQLQLEHLLLALQMILNGINNYKNPKLTRMLTFQFYMPKKATELKHLQCLEEELKPLEEVLNLAQSKNFHLRPRDLISNINVIVLALKGSETTFMCEYADETATIVEFLNRWITFCQSIISTLT light: DTVLTQSPALAVSPGERVTISCRASESVRTGVHWYQQKPGQQPKLLIYGASNLESGVPARFSGSGSGTDFTLTIDPVEADDTATYFCQQSWNDPFTFGSGTKLEIKRTVAAPSVFIFPPSDEQLKSGTASVVCLLNNFYPREAKVQWKVDNALQSGNSQESVTEQDSKDSTYSLSSTLTLSKADYEKHKVYACEVTHQGLSSPVTKSFNRGEC
9 | 12 fold | 2 fold | 1H3-hIgG1-L6-hIL-2 (F42H/Y45R/D20A) (protein) heavy: EVQLVESGGGLVQPGRSLKLSCAVSGFTFSDYAMAWVRQAPKKGLEWVATISYDGSRTYYRDSVKGRFTISRDNAKITLYLQMDSLRSEDTATYYCARHGSGYFDYWGQGVMVTVSS[not shown - human IgG1 constant region]SGGGGSAPTSSSTKKTQLQLEHLLLALQMILNGINNYKNPKLTRMLTHKFRMPKKATELKHLQCLEEELKPLEEVLNLAQSKNFHLRPRDLISNINVIVLELKGSETTFMCEYADETATIVEFLNRWITFCQSIISTLT light: DTVLTQSPALAVSPGERVTISCRASESVRTGVHWYQQKPGQQPKLLIYGASNLESGVPARFSGSGSGTDFTLTIDPVEADDTATYFCQQSWNDPFTFGSGTKLEIKRTVAAPSVFIFPPSDEQLKSGTASVVCLLNNFYPREAKVQWKVDNALQSGNSQESVTEQDSKDSTYSLSSTLTLSKADYEKHKVYACEVTHQGLSSPVTKSFNRGEC
10 | 12 fold | 0 fold | 1H3-hIgG1-L6-hIL-2 (R38E/Q22A) (protein) heavy: EVQLVESGGGLVQPGRSLKLSCAVSGFTFSDYAMAWVRQAPKKGLEWVATISYDGSRTYYRDSVKGRFTISRDNAKITLYLQMDSLRSEDTATYYCARHGSGYFDYWGQGVMVTVSS[not shown - about 450 residues with a human IgG1 Fc and changes] light: DTVLTQSPALAVSPGERVTISCRASESVRTGVHWYQQKPGQQPKLLIYGASNLESGVPARFSGSGSGTDFTLTIDPVEADDTATYFCQQSWNDPFTFGSGTKLEIKRTVAAPSVFIFPPSDEQLKSGTASVVCLLNNFYPREAKVQWKVDNALQSGNSQESVTEQDSKDSTYSLSSTLTLSKADYEKHKVYACEVTHQGLSSPVTKSFNRGEC
11 | 5 fold | 6 fold | 1H3-hIgG1-L6-hIL-2 (D20A/E95A/Y45S) (protein) heavy: EVQLVESGGGLVQPGRSLKLSCAVSGFTFSDYAMAWVRQAPKKGLEWVATISYDGSRTYYRDSVKGRFTISRDNAKITLYLQMDSLRSEDTATYYCARHGSGYFDYWGQGVMVTVSS[not shown - human IgG1 constant region]SGGGGSAPTSSSTKKTQLQLEHLLLALQMILNGINNYKNPKLTRMLTFKFSMPKKATELKHLQCLEEELKPLEEVLNLAQSKNFHLRPRDLISNINVIVLALKGSETTFMCEYADETATIVEFLNRWITFCQSIISTLT light: DTVLTQSPALAVSPGERVTISCRASESVRTGVHWYQQKPGQQPKLLIYGASNLESGVPARFSGSGSGTDFTLTIDPVEADDTATYFCQQSWNDPFTFGSGTKLEIKRTVAAPSVFIFPPSDEQLKSGTASVVCLLNNFYPREAKVQWKVDNALQSGNSQESVTEQDSKDSTYSLSSTLTLSKADYEKHKVYACEVTHQGLSSPVTKSFNRGEC
